Reference: the supplement of paper PMC4967469

Columns and labels:
Assay in all cases: Viability of human cancer cell lines after 72 h of drug (GDSC screen)
[1] = compound: CCN(CC)CCCCNc1ncc2cc(-c3cc(OC)cc(OC)c3)c(NC(=O)NC(C)(C)C)nc2n1 [PD-173074]; settings: top dose 2 µM; top dose inferred
Protocol: (§1)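 Human cancer cell lines in 384-well plates, medium with 10% serum, drug for 72 h over a 256-fold dose range (nine 2-fold or five 4-fold steps up to the top dose). Adherent lines were fixed and stained with the nucleic acid dye Syto60, suspension lines read with resazurin; signal relative to control wells, capped at 0 and 100%. One two-parameter sigmoid per drug and line, fitted in a mixed model over all curves with the slope shared within a line.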

[2] = compound: Cc1cc(C(C)Nc2ccccc2)c2nc(N3CCOCC3)cc(=O)n2c1 [TGX221]; settings: top dose 10 µM
Protocol: as §1

[3] = compound: CN(C)CCOc1ccc(-c2nc(-c3ccncc3)c(-c3ccc4c(c3)CC/C4=N\O)[nH]2)cc1 [SB590885]; settings: top dose 5 µM; top dose inferred
Protocol: as §1

[4] = compound: CS(=O)(=O)CCNCc1ccc(-c2ccc3ncnc(Nc4ccc(OCc5cccc(F)c5)c(Cl)c4)c3c2)o1 [Lapatinib]; settings: top dose 2 µM
Protocol: as §1

| Cell Line | AUC [1] | IC50 [1] [nM] | AUC [2] | IC50 [2] [nM] | AUC [3] | IC50 [3] [nM] | AUC [4] | IC50 [4] [nM] |
| --- | --- | --- | --- | --- | --- | --- | --- | --- |
| OCI-M1 (acute myeloid leukaemia, suspension) | 0.991 | > 2000 | 0.995 | > 10000 | 0.994 | > 5000 | 0.993 | > 2000 |
| OCUB-M (breast, adherent) | 0.986 | > 2000 | 0.944 | > 10000 | 0.989 | > 5000 | 0.366 | 56.6 |
| OMC-1 (cervix, adherent) | 0.988 | > 2000 | 0.988 | > 10000 | 0.988 | > 5000 | 0.986 | > 2000 |
| ONS-76 (medulloblastoma, adherent) | 0.977 | > 2000 | 0.98 | > 10000 | 0.883 | > 5000 | 0.968 | > 2000 |
| OPM-2 (myeloma, suspension) | 0.859 | 1190 | 0.994 | > 10000 | 0.994 | > 5000 | 0.994 | > 2000 |
| OS-RC-2 (kidney, adherent) | 0.918 | > 2000 | 0.584 | 1170 | 0.974 | > 5000 | 0.794 | 1430 |
| OVCAR-4 (ovary, adherent) | 0.966 | > 2000 | 0.95 | > 10000 | 0.973 | > 5000 | 0.911 | > 2000 |
| P30-OHK (lymphoblastic leukaemia, suspension) | 0.945 | > 2000 | 0.98 | > 10000 | 0.99 | > 5000 | 0.985 | > 2000 |
| P31-FUJ (acute myeloid leukaemia, suspension) | 0.994 | > 2000 | 0.996 | > 10000 | 0.996 | > 5000 | 0.996 | > 2000 |
| P32-ISH (Burkitt lymphoma, suspension) | 0.995 | > 2000 | 0.994 | > 10000 | 0.995 | > 5000 | 0.993 | > 2000 |
| PF-382 (T-cell lymphoblastic leukaemia, suspension) | 0.991 | > 2000 | 0.99 | > 10000 | 0.988 | > 5000 | 0.95 | > 2000 |
| PSN1 (pancreas, adherent) | 0.991 | > 2000 | 0.99 | > 10000 | 0.814 | 2190 | 0.991 | > 2000 |
| QIMR-WIL (acute myeloid leukaemia, suspension) | 0.987 | > 2000 | 0.889 | > 10000 | 0.987 | > 5000 | 0.987 | > 2000 |
| RC-K8 (B-cell lymphoma, suspension) | 0.993 | > 2000 | 0.993 | > 10000 | 0.993 | > 5000 | 0.993 | > 2000 |
| RCC10RGB (kidney, adherent) | 0.97 | > 2000 | 0.773 | 9000 | 0.972 | > 5000 | 0.897 | > 2000 |
| REH (B-cell leukaemia, suspension) | 0.951 | > 2000 | 0.985 | > 10000 | 0.973 | > 5000 | 0.974 | > 2000 |
| RF-48 (stomach, adherent) | 0.973 | > 2000 | 0.926 | > 10000 | 0.977 | > 5000 | 0.983 | > 2000 |
| RH-1 (rhabdomyosarcoma, adherent) | 0.986 | > 2000 | 0.991 | > 10000 | 0.991 | > 5000 | 0.985 | > 2000 |
| RKO (large intestine, adherent) | 0.984 | > 2000 | 0.984 | > 10000 | 0.921 | > 5000 | 0.965 | > 2000 |
| RL (B-cell lymphoma, suspension) | 0.99 | > 2000 | 0.989 | > 10000 | 0.99 | > 5000 | 0.984 | > 2000 |
| ROS-50 (B-cell leukaemia, suspension) | 0.968 | > 2000 | 0.977 | > 10000 | 0.971 | > 5000 | 0.984 | > 2000 |
| RPMI-6666 (Hodgkin lymphoma, suspension) | 0.922 | > 2000 | 0.916 | > 10000 | 0.845 | 4770 | 0.955 | > 2000 |
| RPMI-8226 (myeloma, suspension) | 0.912 | > 2000 | 0.984 | > 10000 | 0.973 | > 5000 | 0.99 | > 2000 |
| RPMI-8402 (T-cell lymphoblastic leukaemia, suspension) | 0.969 | > 2000 | 0.958 | > 10000 | 0.991 | > 5000 | 0.975 | > 2000 |
| RPMI-8866 (chronic myeloid leukaemia, suspension) | 0.94 | > 2000 | 0.988 | > 10000 | 0.915 | > 5000 | 0.988 | > 2000 |
| RS4-11 (leukaemia, suspension) | 0.923 | > 2000 | 0.958 | > 10000 | 0.989 | > 5000 | 0.968 | > 2000 |
| RXF393 (kidney, adherent) | 0.93 | > 2000 | 0.714 | 3240 | 0.978 | > 5000 | 0.962 | > 2000 |
| Raji (Burkitt lymphoma, suspension) | 0.977 | > 2000 | 0.983 | > 10000 | 0.976 | > 5000 | 0.987 | > 2000 |
| Ramos-2G6-4C10 (Burkitt lymphoma, suspension) | 0.959 | > 2000 | 0.953 | > 10000 | 0.945 | > 5000 | 0.973 | > 2000 |

Lines with a small IC50 respond at low doses; where the fit passes the top or lowest dose, that dose stands as a limit. The AUC spans the tested range (256-fold, ending at the top dose) of the same fit; values near 1 show little effect. For some of these results: The top dose, if marked as inferred, comes from the curve model; the source does not state it.
